Our source for the cytotoxicity call and growth inhibition call values is the antibiotic and cytotoxicity screens of Wong et al. (2023).

Test [1] concerns HSkMC (human skeletal muscle cells). The test can be described thus: cytotoxicity call (relative viability < 0.9). To be noted: 10 µM.
Test [2] concerns HepG2. The test can be described thus: cytotoxicity call (relative viability < 0.9). To be noted: 10 µM.
Test [3] relates to S. aureus RN4220. Briefly: growth inhibition call (relative growth <= 0.2). To be noted: 50 µM.

This is one part of the list.

With `C[C@@H]1CN([C@@H](C)CO)C(=O)c2ccccc2-c2ccccc2CO[C@@H]1CN(C)C(=O)Nc1cccc(C(F)(F)F)c1`, the cytotoxicity call in test [1] and in test [2] was “inactive” throughout. Besides, the growth inhibition call in test [3] was “inactive”.

For the molecule `C[C@@H]1CN([C@H](C)CO)S(=O)(=O)c2ccc(C#Cc3cccc(F)c3)cc2O[C@H]1CN(C)C(=O)CN1CCOCC1`, the cytotoxicity call in test [1] and in test [2] was “inactive” in each case. Moreover, the growth inhibition call in test [3] is “inactive”.

With `C[C@H]1CN([C@@H](C)CO)S(=O)(=O)c2ccc(C#Cc3ccncc3)cc2O[C@H]1CN(C)C(=O)C1CCCCC1`, the cytotoxicity call in test [1] and in test [2] was “inactive” each time. Besides, the growth inhibition call in test [3] is “inactive”.

`COc1ccc(CN(C)C[C@H]2OCCCC[C@H](C)Oc3ccc(NS(=O)(=O)c4ccc(OC)cc4)cc3C(=O)N([C@@H](C)CO)C[C@H]2C)cc1`: the cytotoxicity call in test [1] and in test [2] was “inactive” throughout. In addition, in test [3], the growth inhibition call is “inactive”.

Turning to `O=C(C[C@@H]1CC[C@H]2[C@@H](COC[C@@H](O)CN2Cc2ccccc2F)O1)N[C@H]1CCN(Cc2ccccc2)C1`, the cytotoxicity call in test [1] and in test [2] was “inactive” in each case. Besides, the growth inhibition call in test [3] is “inactive”.

Take `CCS(=O)(=O)N1CC[C@@H](O)[C@@H]1Cc1cnn(C)c1`: the cytotoxicity call in test [1] and in test [2] was “inactive” throughout. Moreover, in test [3], the growth inhibition call is “inactive”.

As to `C[C@@H]1CN([C@H](C)CO)C(=O)c2cc(NC(=O)Cc3ccccc3)ccc2O[C@@H](C)CCCCO[C@@H]1CN(C)Cc1ccc(C(=O)O)cc1`, the cytotoxicity call in test [1] and in test [2] was “inactive” in each case. In addition, the growth inhibition call in test [3] is “inactive”.

Take `C[C@H](CO)N1C[C@H](C)[C@@H](CN(C)C(=O)Nc2ccc3c(c2)OCO3)Oc2c(NC(=O)C3CC3)cccc2C1=O`: the cytotoxicity call in test [1] and in test [2] was “inactive” each time. Also, the growth inhibition call in test [3] is “inactive”.

As to `CO[C@H]1C[C@H](O[C@H]2[C@H](C)[C@@H](O[C@H]3O[C@H](C)C[C@H](N(C)C)[C@H]3O)[C@@H](C)C[C@]3(CO3)C(=O)[C@H](C)[C@@H](O)[C@@H](C)[C@@H](C)OC(=O)[C@@H]2C)O[C@@H](C)[C@@H]1O`, the cytotoxicity call in test [1] and in test [2] was “inactive” throughout. Also, the growth inhibition call in test [3] is “active”.
